# Measured values as given in paper PMC4336329 (PLoS ONE, 2015).
# Screen size: about 310,000 compounds; about 14,000 (4.5%) showed an effect of 50% or more. The effect is printed as a negative number. The list shows a part of the results.
# Molecular target: human ether-à-go-go-related gene (hERG) potassium channel (human, UniProt Q12809)
# Experiment: primary screen, population patch clamp on CHO cells stably expressing hERG
# 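Also: peak tail current of the secondary pulse compared with the same well before compound.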
# Chain of human ether-à-go-go-related gene (hERG) potassium channel (Q12809 whole entry, looked up): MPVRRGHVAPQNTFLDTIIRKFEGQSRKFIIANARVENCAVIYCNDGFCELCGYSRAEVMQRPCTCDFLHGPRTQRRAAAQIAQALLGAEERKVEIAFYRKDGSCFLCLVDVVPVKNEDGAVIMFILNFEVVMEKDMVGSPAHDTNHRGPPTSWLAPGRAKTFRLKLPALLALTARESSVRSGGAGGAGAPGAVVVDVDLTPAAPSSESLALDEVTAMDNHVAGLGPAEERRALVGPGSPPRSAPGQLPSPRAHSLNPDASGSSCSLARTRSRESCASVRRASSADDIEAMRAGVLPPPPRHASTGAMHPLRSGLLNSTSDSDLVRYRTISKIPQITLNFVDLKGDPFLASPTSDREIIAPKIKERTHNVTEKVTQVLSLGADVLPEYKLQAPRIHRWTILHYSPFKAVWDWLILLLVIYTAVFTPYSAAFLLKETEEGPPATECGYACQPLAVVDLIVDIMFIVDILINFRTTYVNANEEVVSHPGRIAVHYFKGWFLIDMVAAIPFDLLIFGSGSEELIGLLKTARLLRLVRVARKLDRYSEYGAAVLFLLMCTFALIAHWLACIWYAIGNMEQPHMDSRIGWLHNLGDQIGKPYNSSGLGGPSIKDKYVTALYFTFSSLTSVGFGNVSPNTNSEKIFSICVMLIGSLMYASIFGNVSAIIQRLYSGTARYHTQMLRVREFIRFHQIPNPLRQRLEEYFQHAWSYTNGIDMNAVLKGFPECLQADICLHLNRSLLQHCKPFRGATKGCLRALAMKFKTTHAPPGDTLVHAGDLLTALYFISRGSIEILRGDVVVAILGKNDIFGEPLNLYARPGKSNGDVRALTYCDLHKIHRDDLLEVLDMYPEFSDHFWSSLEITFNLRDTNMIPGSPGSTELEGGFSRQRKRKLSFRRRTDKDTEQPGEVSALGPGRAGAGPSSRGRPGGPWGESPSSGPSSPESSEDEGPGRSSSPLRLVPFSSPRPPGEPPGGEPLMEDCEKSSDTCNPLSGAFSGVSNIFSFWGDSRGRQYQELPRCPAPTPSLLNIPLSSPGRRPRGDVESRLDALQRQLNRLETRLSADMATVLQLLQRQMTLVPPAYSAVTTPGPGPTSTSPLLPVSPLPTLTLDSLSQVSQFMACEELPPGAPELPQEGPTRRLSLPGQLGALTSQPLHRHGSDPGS
row,Compound,"hERG current change (%, negative = inhibition) at 10uM [%]"
1,COc1ncnc2sc3c(c12)CCCC3,-16.3
2,CC(=O)Nc1ccc(NC(=O)c2nccnc2C(=O)O)cn1,14.3
3,CC(C)C(=O)Nc1c2c(nn1-c1ccc(F)cc1)CSC2,8.67
4,Cc1ccccc1Nc1cc(C(=O)NCC2CCCO2)c2ccccc2n1 (centres unmarked),-15.6
5,Cc1ccc2cccnc2c1N,4.5
6,O=C(NC(Nc1ccc(F)cc1)(C(F)(F)F)C(F)(F)F)c1cccnc1,10.3
7,CC1CN/C(=C\C(=O)c2ccccc2)C(=O)N1 (centres unmarked),11.9
8,COCCNC(=O)C1CC(=O)N(C2CCCC2)C1 (centres unmarked),10.2
9,CCOc1cc(C(=S)N2CCOCC2)ccc1OS(=O)(=O)c1ccc(OC)cc1,-1.39
10,Cc1ccccc1OCCCN1CCCC1,-14.4
11,COc1ccc(N(Cc2cc3cc(OC)ccc3[nH]c2=O)S(=O)(=O)c2ccc(NC(C)=O)cc2)cc1,5.64
12,COc1ccc(C(=O)NCCc2c[nH]c3ccccc23)cc1,10.8
13,CN1[C@@H]2CCC[C@H]1CC(NC(=O)c1nn(C)c3ccccc13)C2.Cl (some centres unmarked),-7.55
14,COC(=O)c1cn(NC(=O)c2cc(OC)cc(OC)c2)c(=O)c2ccccc12,15.4
15,COc1ccc(C(=O)Oc2cccc(/C=N/NC(N)=S)c2)cc1,11.7
16,COc1ccc2cc3c(N)nn(C(=O)c4ccc(Cl)c([N+](=O)[O-])c4)c3nc2c1,2.95
17,CCC(Oc1ccccc1OC)C(=O)N1CC(=O)Nc2ccccc21 (centres unmarked),2.79
18,O=C(O)c1ccccc1SC1CC(=O)N(C2CCCCC2)C1=O (centres unmarked),-0.781
19,CCOC(=O)CSc1ccc(C(=O)Nc2ccc(Cl)cc2)cn1,21.8
20,Cc1ccccc1-n1c(SCc2c(C)noc2C)nnc1-c1ccncc1,-8.85
21,COc1cc(/C=N/n2nnnc2N)ccc1OCC#N,16.1
22,O=C(CSc1nnc(CNC(=O)c2cccs2)o1)Nc1ccc(Cl)cc1,-4.26
23,CCOCC(=O)Nc1ccccc1C(=O)O,24
24,Cc1ccc(C2CC(=O)NC(SCc3ccccc3)=C2C#N)cc1 (centres unmarked),-8.3
25,O=C(Nc1cccc(Cl)c1N1CCCCC1)c1ccc2c(c1)OCCO2,14.2
26,O=C(COc1ccc2c(-c3ccccc3)cc(=O)oc2c1)Nc1ccc(CCO)cc1,9.04
